# In PubChem BioAssay AID1347120 (National Center for Advancing Translational Sciences (NCATS), 2019):
# In all, about 390,000 compounds went through this assay and about 930 (0.24%) were called active. This list was built around the results that the source calls inconclusive (neither active nor inactive); the mix of calls is not that of the screen. The call rests on the fitted dose curve; in most records, active means well fitted activation curve with a large enough effect; inconclusive means small, poorly fitted or top-dose-only effect; inactive means no such curve, though single readings can be large or run the other way. Potencies beside an inconclusive call are fits to weak or partial responses and may not hold up.
# Test: qHTS for Suppressors of FUS Proteinopathy: Primary screen using FUS-linked yeast assay; further: nearly all actives have a fitted effect of over 55% in size;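 on growth rescue (activation): plate controls were DMSO vehicle for no effect and reference control for full effect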
# Conditions: S. cerevisiae FUS-expressing, OD600, 24 h; Potency: growth rescue; growth rescue (activation): at 76.6 µM (top of the series)
# Method in brief: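 S. cerevisiae expressing FUS from galactose induction served as the toxicity model. Growth after 24hr at 30C, read as absorbance at 600 nm, indicates suppression of toxicity; compounds dosed at several concentrations.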
# Potency means the concentration at half of the fitted maximal effect; tags describe the fitted curve by direction and shape.
Structure (SMILES),Potency,growth rescue (activation)
N#Cc1c(-c2ccccc2)c(-c2ccccc2)nn(CC(=O)NNC(=O)Nc2ccccc2)c1=O,"inconclusive: 50.1 µM [activator, single point]",
Cc1ccc(-c2nnc(SCC(=O)N(C)C)nc2-c2ccc(C)cc2)cc1,"inconclusive: 15.8 µM [activator, partial curve, poor fit]",
COc1ccc(S(=O)(=O)N2CCN(C(=O)c3oc4ccccc4c3C)CC2)cc1,"inconclusive: 28.2 µM [activator, partial curve, poor fit]",
CN1C(=O)Cc2cc(S(=O)(=O)CCC(=O)N3CCN(c4ccccc4F)CC3)ccc21,"inconclusive: 20 µM [activator, partial curve, poor fit]",
Cc1ccc(S(=O)(=O)Nc2ccc3c(c2)C(=O)N([C@H](C)CO)C[C@H](C)[C@@H](CN(C)C(=O)NC2CCCCC2)OCCCC[C@@H](C)O3)cc1,active: 15.8 µM,
CN(C)S(=O)(=O)c1cccc(C(=O)OCC(=O)Nc2sccc2C#N)c1,"inconclusive: 3.16 µM [activator, partial curve, poor fit]",
O=C(CCC1CCCN(c2ncccn2)C1)N1CCN(c2ccccn2)CC1 (stereo unspecified),,inconclusive: -90.5% [activator]
Nc1ccc2c(c1)Cc1cc([N+](=O)[O-])ccc1-2,inactive,
COc1ccc([C@H]2CC(=O)C=C(c3ccc(OC(F)(F)F)cc3)C2)cc1OC,"inconclusive: 50.1 µM [activator, single point]",
CC(C)(C)OC(=O)N1CCC(c2c(C(=O)NCCN3CCC(Cc4ccccc4)CC3)cnn2-c2ccccc2)CC1,"inconclusive: 14.1 µM [activator, partial curve, poor fit]",
C[C@H]1NC(=O)[C@@]2(C)[C@@H](c3ccccc3)[C@H]3COc4ccccc4[C@@H]3N2C1=O,inactive,
Cn1c(N)c(C(=O)COC(=O)c2ccccc2C(=O)c2ccc(Cl)cc2)c(=O)n(C)c1=O,"inconclusive: 25.1 µM [activator, partial curve, poor fit]",
COc1ccc(CN2C(=O)c3ccccc3C2c2nnnn2-c2c(C)cccc2C)cc1OC (stereo unspecified),"inconclusive: 35.5 µM [activator, single point]",
CN(CC(=O)Nc1cccc(F)c1)C(=O)c1ccc(N2CCCCCC2)c([N+](=O)[O-])c1,"inconclusive: 25.1 µM [activator, partial curve]",
CCOC(=O)c1ccc(NC(=O)CC2C(=O)N(c3ccc(F)cc3)C(=O)N2Cc2ccc3c(c2)OCO3)cc1 (stereo unspecified),active: 39.8 µM,
CC(Nc1nc(-c2cccc(Br)c2)cs1)c1nc2cc(Cl)c(N3CCCCC3)cc2n1CCOCCO (stereo unspecified),"inconclusive: 17.8 µM [activator, partial curve, poor fit]",
